Data taken from US20260297081A1, “COMPOUNDS AND METHODS OF TREATING CANCERS” (Cullgen Inc., priority 2023, published 2026).
The name of at least one read-out is uncertain.

System: CyclinD1 (CCND1)
Assay: Cyclin D1 (CCND1) percentage degradation in Calu-1 cells (Table 6)
Assay type: cell-based
Conditions: 16 hours

For `CNc1ccc(C(=O)Nc2ccc(N(C)C)nn2)c(N[C@H]2CC[C@H](CNC(=O)CN3CCN(c4ccc(Nc5ncc6c(C)c(C(C)=O)c(=O)n(C7CCCC7)c6n5)nc4)CC3)CC2)n1` [CPD-43, 2-((trans-4-((2-(4-(6-((6-Acetyl-8-cyclopentyl-5-methyl-7-oxo-7,8-dihydropyrido[2,3-d]pyrimidin-2-yl)amino)pyridin-3-yl)piperazin-1-yl)acetamido)methyl)cyclohexyl)amino)-N-(6-(dimethylamino)pyridazin-3-yl)-6-(methylamino)nicotinamide], the “CyclinD1 Degradation (40 nM)” value was “A (degradation activity >80%)” and the “CyclinD1 Degradation (200 nM)” value was “A (degradation activity >80%)”.
With `CC(=O)c1c(C)c2cnc(Nc3ccc(N4CCN(CC(=O)NCCCCCNc5nc(C6CC6)ccc5C(=O)Nc5ccc(C)c(C6CC6)n5)CC4)cn3)nc2n(C2CCCC2)c1=O` [CPD-44, 2-((5-(2-(4-(6-((6-Acetyl-8-cyclopentyl-5-methyl-7-oxo-7,8-dihydropyrido[2,3-d]pyrimidin-2-yl)amino)pyridin-3-yl)piperazin-1-yl)acetamido)pentyl)amino)-6-cyclopropyl-N-(6-cyclopropyl-5-methylpyridin-2-yl)nicotinamide] the “CyclinD1 Degradation (40 nM)” value was “D (degradation activity <30%)” and the “CyclinD1 Degradation (200 nM)” value was “A (degradation activity >80%)”.
In the case of `CC(=O)c1c(C)c2cnc(Nc3ccc(N4CCN(CC(=O)NCCC5CC(Nc6nc(C7CC7)ccc6C(=O)Nc6ccc(C)c(C7CC7)n6)C5)CC4)cn3)nc2n(C2CCCC2)c1=O` (centres unmarked) [CPD-45, 2-((3-(2-(2-(4-(6-((6-Acetyl-8-cyclopentyl-5-methyl-7-oxo-7,8-dihydropyrido[2,3-d]pyrimidin-2-yl)amino)pyridin-3-yl)piperazin-1-yl)acetamido)ethyl)cyclobutyl)amino)-6-cyclopropyl-N-(6-cyclopropyl-5-methylpyridin-2-yl)nicotinamide], the “CyclinD1 Degradation (40 nM)” value is reported as “D (degradation activity <30%)” and the “CyclinD1 Degradation (200 nM)” value is reported as “A (degradation activity >80%)”.
With `CNc1ccc(C(=O)Nc2ccc(N(C)C)cc2)c(NCCCCCNC(=O)CN2CCN(c3ccc(Nc4ncc5c(C)c(C(C)=O)c(=O)n(C6CCCC6)c5n4)nc3)CC2)n1` [CPD-46, 2-((5-(2-(4-(6-((6-Acetyl-8-cyclopentyl-5-methyl-7-oxo-7,8-dihydropyrido[2,3-d]pyrimidin-2-yl)amino)pyridin-3-yl)piperazin-1-yl)acetamido)pentyl)amino)-N-(4-(dimethylamino)phenyl)-6-(methylamino)nicotinamide] the “CyclinD1 Degradation (40 nM)” value was “D (degradation activity <30%)” and the “CyclinD1 Degradation (200 nM)” value was “D (degradation activity <30%)”.
For `CNc1ccc(C(=O)Nc2ccc(N(C)C)cn2)c(NCCCCCNC(=O)CN2CCN(c3ccc(Nc4ncc5c(C)c(C(C)=O)c(=O)n(C6CCCC6)c5n4)nc3)CC2)n1` [CPD-47, 2-((5-(2-(4-(6-((6-Acetyl-8-cyclopentyl-5-methyl-7-oxo-7,8-dihydropyrido[2,3-d]pyrimidin-2-yl)amino)pyridin-3-yl)piperazin-1-yl)acetamido)pentyl)amino)-N-(5-(dimethylamino)pyridin-2-yl)-6-(methylamino)nicotinamide], the “CyclinD1 Degradation (40 nM)” value was “D (degradation activity <30%)” and the “CyclinD1 Degradation (200 nM)” value was “A (degradation activity >80%)”.
With `CNc1ccc(C(=O)NC2CCC(N(C)C)CC2)c(NCCCCCNC(=O)CN2CCN(c3ccc(Nc4ncc5c(C)c(C(C)=O)c(=O)n(C6CCCC6)c5n4)nc3)CC2)n1` (centres unmarked) [CPD-48, 2-((5-(2-(4-(6-((6-Acetyl-8-cyclopentyl-5-methyl-7-oxo-7,8-dihydropyrido[2,3-d]pyrimidin-2-yl)amino)pyridin-3-yl)piperazin-1-yl)acetamido)pentyl)amino)-N-(4-(dimethylamino)cyclohexyl)-6-(methylamino)nicotinamide] the “CyclinD1 Degradation (40 nM)” value was “D (degradation activity <30%)” and the “CyclinD1 Degradation (200 nM)” value was “D (degradation activity <30%)”.
With `CNc1ccc(C(=O)Nc2ccn(C)n2)c(NCCCCCNC(=O)CN2CCN(c3ccc(Nc4ncc5c(C)c(C(C)=O)c(=O)n(C6CCCC6)c5n4)nc3)CC2)n1` [CPD-49, 2-((5-(2-(4-(6-((6-Acetyl-8-cyclopentyl-5-methyl-7-oxo-7,8-dihydropyrido[2,3-d]pyrimidin-2-yl)amino)pyridin-3-yl)piperazin-1-yl)acetamido)pentyl)amino)-N-(1-methyl-1H-pyrazol-3-yl)-6-(methylamino)nicotinamide] the “CyclinD1 Degradation (40 nM)” value was “B (50%< degradation activity <80%)” and the “CyclinD1 Degradation (200 nM)” value was “A (degradation activity >80%)”.
With `CNc1ccc(C(=O)Nc2cc(C)n(C)n2)c(NCCCCCNC(=O)CN2CCN(c3ccc(Nc4ncc5c(C)c(C(C)=O)c(=O)n(C6CCCC6)c5n4)nc3)CC2)n1` [CPD-50, 2-((5-(2-(4-(6-((6-acetyl-8-cyclopentyl-5-methyl-7-oxo-7,8-dihydropyrido[2,3-d]pyrimidin-2-yl)amino)pyridin-3-yl)piperazin-1-yl)acetamido)pentyl)amino)-N-(1,5-dimethyl-1H-pyrazol-3-yl)-6-(methylamino)nicotinamide] the “CyclinD1 Degradation (40 nM)” value was “A (degradation activity >80%)” and the “CyclinD1 Degradation (200 nM)” value was “A (degradation activity >80%)”.
In the case of `CNc1ccc(C(=O)Nc2cccc(C3CC3)n2)c(NCCCCCNC(=O)CN2CCN(c3ccc(Nc4ncc5c(C)c(C(C)=O)c(=O)n(C6CCCC6)c5n4)nc3)CC2)n1` [CPD-51, 2-((5-(2-(4-(6-((6-Acetyl-8-cyclopentyl-5-methyl-7-oxo-7,8-dihydropyrido[2,3-d]pyrimidin-2-yl)amino)pyridin-3-yl)piperazin-1-yl)acetamido)pentyl)amino)-N-(6-cyclopropylpyridin-2-yl)-6-(methylamino)nicotinamide], the “CyclinD1 Degradation (40 nM)” value is reported as “A (degradation activity >80%)” and the “CyclinD1 Degradation (200 nM)” value is reported as “A (degradation activity >80%)”.
For `CNc1ccc(C(=O)Nc2cc(C)cc(C3CC3)n2)c(NCCCCCNC(=O)CN2CCN(c3ccc(Nc4ncc5c(C)c(C(C)=O)c(=O)n(C6CCCC6)c5n4)nc3)CC2)n1` [CPD-53, 2-((5-(2-(4-(6-((6-Acetyl-8-cyclopentyl-5-methyl-7-oxo-7,8-dihydropyrido[2,3-d]pyrimidin-2-yl)amino)pyridin-3-yl)piperazin-1-yl)acetamido)pentyl)amino)-N-(6-cyclopropyl-4-methylpyridin-2-yl)-6-(methylamino)nicotinamide], the “CyclinD1 Degradation (40 nM)” value was “A (degradation activity >80%)” and the “CyclinD1 Degradation (200 nM)” value was “A (degradation activity >80%)”.
`CCc1ccc(C(=O)Nc2ccc(N(C)C)nn2)c(NCCCCCNC(=O)CN2CCN(c3ccc(Nc4ncc5c(C)c(C(C)=O)c(=O)n(C6CCCC6)c5n4)nc3)CC2)n1` [CPD-54, 2-((5-(2-(4-(6-((6-Acetyl-8-cyclopentyl-5-methyl-7-oxo-7,8-dihydropyrido[2,3-d]pyrimidin-2-yl)amino)pyridin-3-yl)piperazin-1-yl)acetamido)pentyl)amino)-N-(6-(dimethylamino)pyridazin-3-yl)-6-ethylnicotinamide] was tested, and the “CyclinD1 Degradation (40 nM)” value was “A (degradation activity >80%)” and the “CyclinD1 Degradation (200 nM)” value was “A (degradation activity >80%)”.
With `CNc1ccc(C(=O)NC2CCC(N(C)C)C2)c(NCCCCCNC(=O)CN2CCN(c3ccc(Nc4ncc5c(C)c(C(C)=O)c(=O)n(C6CCCC6)c5n4)nc3)CC2)n1` (centres unmarked) [CPD-55, 2-((5-(2-(4-(6-((6-Acetyl-8-cyclopentyl-5-methyl-7-oxo-7,8-dihydropyrido[2,3-d]pyrimidin-2-yl)amino)pyridin-3-yl)piperazin-1-yl)acetamido)pentyl)amino)-N-(3-(dimethylamino)cyclopentyl)-6-(methylamino)nicotinamide] the “CyclinD1 Degradation (40 nM)” value was “D (degradation activity <30%)” and the “CyclinD1 Degradation (200 nM)” value was “D (degradation activity <30%)”.
For `CNc1ccc(C(=O)Nc2nc(C3CC3)c(C)s2)c(NCCCCCNC(=O)CN2CCN(c3ccc(Nc4ncc5c(C)c(C(C)=O)c(=O)n(C6CCCC6)c5n4)nc3)CC2)n1` [CPD-56, 2-((5-(2-(4-(6-((6-Acetyl-8-cyclopentyl-5-methyl-7-oxo-7,8-dihydropyrido[2,3-d]pyrimidin-2-yl)amino)pyridin-3-yl)piperazin-1-yl)acetamido)pentyl)amino)-N-(4-cyclopropyl-5-methylthiazol-2-yl)-6-(methylamino)nicotinamide], the “CyclinD1 Degradation (40 nM)” value was “A (degradation activity >80%)” and the “CyclinD1 Degradation (200 nM)” value was “A (degradation activity >80%)”.
`CNc1ccc(C(=O)Nc2ccc(C)c(C3CC3)n2)c(NC2CC3(CC(NC(=O)CN4CCN(c5ccc(Nc6ncc7c(C)c(C(C)=O)c(=O)n(C8CCCC8)c7n6)nc5)CC4)C3)C2)n1` (centres unmarked) [CPD-57, 2-((6-(2-(4-(6-((6-Acetyl-8-cyclopentyl-5-methyl-7-oxo-7,8-dihydropyrido[2,3-d]pyrimidin-2-yl)amino)pyridin-3-yl)piperazin-1-yl)acetamido)spiro[3.3]heptan-2-yl)amino)-N-(6-cyclopropyl-5-methylpyridin-2-yl)-6-(methylamino)nicotinamide] was tested, and the “CyclinD1 Degradation (40 nM)” value was “A (degradation activity >80%)” and the “CyclinD1 Degradation (200 nM)” value was “A (degradation activity >80%)”.
`CNc1ccc(C(=O)Nc2ccc(N(C)C)nc2)c(NCCCCCNC(=O)CN2CCN(c3ccc(Nc4ncc5c(C)c(C(C)=O)c(=O)n(C6CCCC6)c5n4)nc3)CC2)n1` [CPD-58, 2-((5-(2-(4-(6-((6-Acetyl-8-cyclopentyl-5-methyl-7-oxo-7,8-dihydropyrido[2,3-d]pyrimidin-2-yl)amino)pyridin-3-yl)piperazin-1-yl)acetamido)pentyl)amino)-N-(6-(dimethylamino)pyridin-3-yl)-6-(methylamino)nicotinamide] was tested, and the “CyclinD1 Degradation (40 nM)” value was “D (degradation activity <30%)” and the “CyclinD1 Degradation (200 nM)” value was “A (degradation activity >80%)”.
In the case of `CC(=O)c1c(C)c2cnc(Nc3ccc(N4CCN(CC(=O)NCCCCCNc5nc(NC6CCC6)ccc5C(=O)Nc5ccc(N(C)C)nn5)CC4)cn3)nc2n(C2CCCC2)c1=O` [CPD-59, 2-((5-(2-(4-(6-((6-Acetyl-8-cyclopentyl-5-methyl-7-oxo-7,8-dihydropyrido[2,3-d]pyrimidin-2-yl)amino)pyridin-3-yl)piperazin-1-yl)acetamido)pentyl)amino)-6-(cyclobutylamino)-N-(6-(dimethylamino)pyridazin-3-yl)nicotinamide], the “CyclinD1 Degradation (40 nM)” value is reported as “A (degradation activity >80%)” and the “CyclinD1 Degradation (200 nM)” value is reported as “A (degradation activity >80%)”.
